Among the data in the supplement of paper PMC9446081 are relative growth values, retold here.

Out of some 39,000 compounds screened, about 220 (0.56%) showed activity. This is one part of the list.
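Note: static incubation at 37 °C against the wild-type strain, values averaged over two biological replicates.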

The experiment has as its system Escherichia coli K-12 BW25113. As to the kind of experiment: relative growth (OD600 normalised to plate interquartile mean) (fraction); higher = less growth inhibition, active = 0.2 or less. The settings on record: 50 µM; LB; incubation time: overnight (16-24 h).
As for `C[C@@H]1CN([C@@H](C)CO)C(=O)c2cc(NC(=O)Cn3cnnn3)ccc2O[C@@H]1CN(C)Cc1ccc(Cl)c(Cl)c1`, the relative growth is inactive: 0.993.

As for `COc1ccc(C(=O)CCC(=O)O)c2ccccc12`, the relative growth is inactive: 0.944.

On to `C[C@@H]1CN([C@H](C)CO)C(=O)c2cc(NC(=O)Nc3ccc(C(F)(F)F)cc3)ccc2O[C@@H](C)CCCCO[C@@H]1CN(C)Cc1ccc(Cl)c(Cl)c1`, for which the relative growth is inactive: 1.04.

In the case of `C[C@@H]1CN([C@H](C)CO)C(=O)c2cc(NC(=O)Cn3cnnn3)ccc2O[C@H]1CN(C)S(=O)(=O)c1ccc(Cl)cc1`, the relative growth is inactive: 0.929.

Regarding `COc1c(C)cccc1C(=O)N1CC[C@H](c2nn(CCN)c3ncccc23)C1`, the relative growth was inactive: 1.04.

For `COc1ccc(NC(=O)N(C)C[C@H]2Oc3ccc(NC(=O)Nc4cccc5ccccc45)cc3CC(=O)N([C@@H](C)CO)C[C@@H]2C)cc1`, the relative growth was inactive: 1.03.

With `COc1cc2c(cc1OC)-c1cc3ccc(OC)c(OC)c3c[n+]1CC2.[Cl-]`, the relative growth was inactive: 0.887.

`CCC(=O)N[C@@H]1C=C[C@@H](CC(=O)OC)O[C@@H]1CO`: the relative growth was inactive: 1.03.

As for `Cc1noc(C)c1S(=O)(=O)Nc1ccc2c(c1)C(=O)N([C@H](C)CO)C[C@H](C)[C@@H](CN(C)Cc1ccc(C(F)(F)F)cc1)OCCCC[C@H](C)O2`, the relative growth is inactive: 1.04.

With `CO[C@@H]1CN(C)C(=O)c2cc(NS(C)(=O)=O)ccc2OC[C@H](C)N(C(=O)C2CCOCC2)C[C@H]1C`, the relative growth is inactive: 1.02.

For `C[C@@H]1CN(C)C(=O)c2cc(NC(=O)Nc3ccccc3)ccc2O[C@@H](C)CCCCO[C@@H]1CN(C)S(=O)(=O)c1ccc(F)cc1`, the relative growth is inactive: 1.01.

For `COC(=O)C[C@H]1CC[C@H]2[C@@H](COC[C@H](O)CN2S(=O)(=O)c2cn(C)cn2)O1`, the relative growth is inactive: 0.974.

In the case of `C[C@H]1CN([C@@H](C)CO)C(=O)CCCn2cc(nn2)CO[C@@H]1CN(C)S(=O)(=O)c1ccc2c(c1)OCCCO2`, the relative growth is inactive: 0.982.

`C[C@@H]1CN([C@H](C)CO)C(=O)c2cc(NC(=O)Cc3cn(C)c4ccccc34)ccc2O[C@H]1CN(C)C(=O)Nc1ccc(C(F)(F)F)cc1`: the relative growth was inactive: 1.05.

With `COc1ccc(S(=O)(=O)N(C)C[C@@H]2Oc3ccc(NC(=O)CCCN(C)C)cc3C(=O)N([C@@H](C)CO)C[C@H]2C)cc1`, the relative growth is inactive: 1.01.

For `CC[C@@H](Sc1n[nH]c(=O)[nH]c1=O)C(=O)O`, the relative growth was inactive: 1.01.

As to `CCc1nc2ccc(C(=O)NCc3ccc(OC)cc3)cn2c1N(CC)Cc1cccc(Br)c1`, the relative growth was inactive: 0.998.

In the case of `C[C@@H]1COCC(=O)N1`, the relative growth was inactive: 1.01.

As to `C[C@@H]1CN([C@@H](C)CO)C(=O)c2cc(NS(=O)(=O)c3cccs3)ccc2O[C@H]1CN(C)Cc1ccncc1`, the relative growth is inactive: 1.02.

On to `C[C@@H]1CN([C@@H](C)CO)C(=O)Cc2cc(NC(=O)CCCN(C)C)ccc2O[C@H]1CN(C)C(=O)Nc1ccccc1`, for which the relative growth is inactive: 0.764.

For `C[C@H]1CCCCO[C@@H](CN(C)Cc2ccc3c(c2)OCO3)[C@@H](C)CN([C@@H](C)CO)C(=O)c2cc(NC(=O)Nc3ccc(C(F)(F)F)cc3)ccc2O1`, the relative growth was inactive: 0.982.

Take `CC(C)C[C@H](NC(=O)[C@@H](Cc1c[nH]c2ccccc12)NC(=O)[C@H](Cc1ccc(O)cc1)NC(=O)[C@H](CO)NC(=O)[C@H](Cc1c[nH]c2ccccc12)NC(=O)[C@H](Cc1cnc[nH]1)NC(=O)[C@@H]1CCC(=O)N1)C(=O)N[C@@H](CCCNC(=N)N)C(=O)N1CCC[C@H]1C(=O)NCC(N)=O`: the relative growth is inactive: 1.02.

On to `COc1ccc(C#Cc2ccc3c(c2)O[C@@H](CN(C)C(=O)c2ccccn2)[C@@H](C)CN([C@@H](C)CO)S3(=O)=O)cc1`, for which the relative growth was inactive: 1.

As for `C[C@@H]1CN([C@@H](C)CO)C(=O)c2cc(NC(=O)Nc3cccc4ccccc34)ccc2O[C@@H](C)CCCCO[C@@H]1CN(C)C(=O)CCCN(C)C`, the relative growth is inactive: 0.991.

`Cc1ccc(S(=O)(=O)N(C)C[C@H]2Oc3ccc(NC(=O)CCN4CCOCC4)cc3CC(=O)N([C@@H](C)CO)C[C@@H]2C)cc1`: the relative growth was inactive: 0.991.

Consider `COc1ccc(NC(=O)Nc2ccc3c(c2)C(=O)N([C@@H](C)CO)C[C@@H](C)[C@@H](CN(C)S(=O)(=O)c2c(C)noc2C)OCCCC[C@@H](C)O3)cc1`, for which the relative growth was inactive: 1.01.

In the case of `COc1ccccc1C(=O)Nc1ccc2c(c1)C(=O)N(C)[C@@H]1CC[C@H](CC(=O)NCCc3ccncc3)O[C@@H]1CO2`, the relative growth is inactive: 1.

With `C[C@H]1Cc2c(N)nn(C)c2NC1=O`, the relative growth is inactive: 1.

`COC(=O)C1CC2=CC(=O)CCC2(C)C23OC2CC2(C)C(CCC24CCC(=O)O4)C13` (configuration not stated): the relative growth is inactive: 1.2.

With `COc1ccc(S(=O)(=O)N(C)C[C@@H]2Oc3ccc(NS(=O)(=O)c4cccs4)cc3C(=O)N([C@H](C)CO)C[C@@H]2C)cc1`, the relative growth is inactive: 1.

Take `C[C@H](CO)N1C[C@H](C)[C@H](CN(C)S(=O)(=O)c2ccccc2)Oc2ccc(NS(=O)(=O)c3ccc(F)cc3)cc2CC1=O`: the relative growth was inactive: 0.999.

For the molecule `O=C(O)C[C@H]1CC[C@H]2[C@@H](COC[C@H](O)CN2S(=O)(=O)c2ccc(F)cc2)O1`, the relative growth is inactive: 0.979.

In the case of `Cc1ccc(S(=O)(=O)Nc2ccc3c(c2)C(=O)N([C@@H](C)CO)C[C@@H](C)[C@H](CN(C)C(=O)C2CCCCC2)OCCCC[C@H](C)O3)cc1`, the relative growth is inactive: 1.01.

On to `Cc1ccc(S(=O)(=O)N(C)C[C@@H]2Oc3cc(C#Cc4ccccc4)ccc3S(=O)(=O)N([C@@H](C)CO)C[C@H]2C)cc1`, for which the relative growth was inactive: 1.04.

Turning to `Cc1ccc(S(=O)(=O)Nc2ccc3c(c2)C(=O)N([C@H](C)CO)C[C@H](C)[C@@H](CN(C)Cc2ccc(C(F)(F)F)cc2)O3)cc1`, the relative growth is inactive: 1.01.

Take `CCCC(=O)Nc1ccc2c(c1)C(=O)N(C)C[C@@H](OC)[C@H](C)CN(S(=O)(=O)c1cn(C)cn1)[C@@H](C)CO2`: the relative growth is inactive: 0.983.

On to `COc1ccc(S(=O)(=O)Nc2ccc3c(c2)C(=O)N([C@@H](C)CO)C[C@H](C)[C@H](CN(C)C(=O)C2CCCCC2)OCCCC[C@H](C)O3)cc1`, for which the relative growth was inactive: 1.04.
